Reference: PubChem BioAssay AID662 (National Center for Advancing Translational Sciences (NCATS), 2007)
Among all 71,000 compounds or so, about 1,800 (2.5%) were called active. This list was built around the results that the source calls inconclusive (neither active nor inactive); the mix of calls is not that of the screen. Calls come from the whole dose curve; as a rule, active = well fitted activation curve with a large enough effect in the signal ratio, with a control signal flat (not every such curve was filed as active); inconclusive = small, poorly fitted or top-dose-only effect, or effect the other way, or a change in a side signal; inactive = flat fitted curve, though single readings scatter; the % refers to the signal ratio. Where the call is inconclusive, the potency comes from a doubtful curve fit.

Assay: Cell signaling CRE-BLA (Fsk stim); for activity change, negative = inhibition: % of control where 0% means no effect
Conditions: CHO CRE-bla reporter (cAMP response element driving beta-lactamase), forskolin EC10, beta-lactamase ratio; activity change, negative = inhibition: at 38.2 µM (top of the series) unless noted
Procedure, shortened: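 Beta-lactamase reporter under a cAMP responsive element in CHO cells; compounds tested in titration series against EC10 NKH 477, 3 h at 37 °C. Read-out: CCF4 FRET ratio 460nm/530nm (excitation 405nm) giving %Activity, fitted to AC50.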
Potency is the fitted concentration of half-maximal effect; tags give direction and shape of the fitted curve.

Structure (SMILES) | activity change, negative = inhibition | Potency
CCOC(=O)N1CCC(NC(=O)c2ccc3c(c2)ncn3C2CCCC2)CC1 | inconclusive: 11.6% | –
Brc1cnc(N2CCCC2)nc1N1CCOCC1 | – | inconclusive: 25.1 µM [rising, single point]
Cc1c(C(=O)NCC2CCCO2)sc2nc(-c3ccc(F)cc3)cn12 (stereo not drawn) | – | active: 12.6 µM
O=C(CSc1oc(-c2ccco2)nc1S(=O)(=O)c1ccccc1)NCC1CCCO1 (stereo not drawn) | – | inconclusive: 0.794 µM [rising, full curve]
Cc1ccc(NC(=O)CSC(N)=O)cc1Cl | inconclusive: -0.847% [cytotoxic] | –
COCCNC(=O)c1ccccc1NC(=O)c1ccc(OC)c(OC)c1 | – | inconclusive: 10 µM [rising, partial curve]
COC(=O)c1ccccc1O | inactive | –
O=c1cnc2cnc(Oc3cccc(Cl)c3)nc2n1C[C@H]1CCCO1 | inactive | –
Cc1ccccc1Nc1nc(N)nc(COC(=O)C(NC(=O)c2ccco2)C(C)C)n1 (stereo not drawn) | – | inconclusive: 20 µM [rising, single point]
C=C(c1ccc(O)cc1)c1ccc(O)cc1 | inactive | –
O=C(Nc1ccc(N2CCN(C(=O)c3ccco3)CC2)cc1)c1ccccc1F | inactive | –
COc1ccc(Br)cc1-c1nc(C)c(C(C)=O)n1O | inconclusive: 8.47% | –
COc1ccc(COn2c(=O)c(C)[n+]([O-])c3ccccc32)cc1OC | – | active: 10 µM
C=CCn1c(SCc2nc3c(c(=O)[nH]c(=O)n3CCCC)n2CCC)nnc1-c1ccccc1 | – | inconclusive: 12.6 µM [rising, single point]
O=C(C1CCCCC1)N1CCN(c2ccccc2F)CC1 | inconclusive: -14.9% | –
Cc1ccc(OCC(=O)n2cnnc2N)c(C)c1 | inactive | –
O=c1c(O)c(-c2cccs2)oc2ccccc12 | inactive | –
O=C(c1cccnc1)N1CCCc2ccccc21 | – | inconclusive: 0.794 µM [falling, single point]
O=C(Oc1ccc2c(c1)OCO2)c1ccncc1 | – | inconclusive: 5.01 µM [falling, single point]
CCCCN1CCCCC1C(=O)Nc1c(C)cc(C)cc1C (stereo not drawn) | inconclusive: -4.55% | –
CCCCCCCCCCCCOS(=O)(=O)O | inconclusive: -31.7% | –
COc1ccc(CCNC(=O)Cc2cc(=O)[nH]c(=O)[nH]2)cc1OC | – | inconclusive: 3.16 µM [rising, full curve, poor fit]
O=C1c2ccccc2S(=O)(=O)N1CC(O)COc1ccc(Br)cc1 (stereo not drawn) | inactive | –
CN1CCN(c2ncc3nc(-c4cccs4)c(=O)n(CCc4ccccc4)c3n2)CC1 | – | inconclusive: 0.398 µM [rising, full curve]
COc1ccc(OC(C)C(=O)N2CCN(c3ccccn3)CC2)cc1 (stereo not drawn) | – | inconclusive: 12.6 µM [rising, single point]
COc1cc(Cl)c(C)cc1NC(=O)CSc1nc2ccccc2o1 | inactive | –
C=CCn1c(C)cc(C(=O)CSc2nc3ccccc3c(=O)[nH]2)c1C | inconclusive: 25.2% | –

Structure (SMILES) | activity change, negative = inhibition | Potency
Cc1cc(C)n2nc(SCC(=O)N(C(C)C)C(C)C)nc2n1 | – | inconclusive: 10 µM [rising, single point]
O=C(COC(=O)c1ccccc1Nc1ccccc1)NCc1ccco1 | – | inconclusive: 20 µM [rising, single point]
CCNc1nc(NC(C)(C)C)nc(N(C#N)CC)n1 | – | inconclusive: 10 µM [rising, partial curve]
O=C1NC(c2ccccc2)(C(F)(F)F)C(=O)N1Cc1cccnc1 (stereo not drawn) | inactive | –
CCCc1[nH]nc2c1C(c1ccc(OCCN3CCOCC3)c(OC)c1)C(C#N)=C(N)O2 (stereo not drawn) | inactive | –
CCOc1cc(CN2CCN(c3cccc(C(F)(F)F)c3)CC2)ccc1O | inactive | –
Cc1cccc(NCN2C(=O)c3ccncc3C2=O)n1 | inconclusive: -14.4% | –
Cc1ccc(C)c2[nH]c(=O)c(CN(CCN3CCOCC3)Cc3nnnn3CC3CCCO3)cc12 (stereo not drawn) | inactive | –
Cn1c(CC(=O)Nc2ccccc2)nnc1SCCOc1ccccc1 | inactive | –
Cc1ccc(NC(=O)NC(=O)CN2C(=O)NC3(CCCCCCC3)C2=O)c(C)c1 | inconclusive: 8.86% | –
COCCNC(=O)CN(C(=O)CCC(=O)Nc1ccccn1)c1ccc(F)cc1 | inactive | –
O=C(O)COc1ccc2c(c1)CCCC2 | – | inconclusive: 0.794 µM [rising, partial curve]
COc1ccccc1-c1ccc2ncnc(N(C)C)c2c1 | inconclusive: 22.1% | –
Cc1nc2sc(C(c3ccco3)N3CCN(c4ccc(F)cc4)CC3)c(O)n2n1 (stereo not drawn) | – | inconclusive: 1.26 µM [rising, full curve, poor fit]
CCn1c(SCC(=O)c2c[nH]c3ccccc23)nnc1-c1cccs1 | inactive | –
CCOc1cc(NC(=O)c2ccco2)c(OCC)cc1NC(=O)CCC(=O)NCc1cccnc1 | – | inconclusive: 10 µM [rising, single point]
Cc1cccc(CNc2cc(-c3cccc(NS(C)(=O)=O)c3)ncn2)c1 | inconclusive: 29% | –
CCCCOc1ccc(-c2nnn(CCC(=O)N3CCOCC3)n2)cc1 | inconclusive: -8.11% | –
Cc1ccc(-c2csc3ncn(/N=C/N(C)C)c(=O)c23)o1 | inactive | –
CSC1=NC(NCCCO)c2c(sc3c2CC(C)(C)OC3)N1 (stereo not drawn) | – | inconclusive: 6.31 µM [rising, partial curve]
CCOC(=O)N1CCN(C(=O)Cn2nc(C)c3sc4ccccc4c3c2=O)CC1 | – | inconclusive: 25.1 µM [falling, single point]
Cc1ccc(C)c(Cn2nnc3c(=O)[nH]c(C4CCCN(C(=O)C5CCCCC5)C4)nc32)c1 (stereo not drawn) | – | inconclusive: 15.8 µM [rising, single point]
Cc1ccc2cc3c(nc2c1)N(Cc1ccco1)CC3 | – | inconclusive: 12.6 µM [rising, single point]
COC(=O)c1cc2oc3ccccc3c2n1Cc1ccccn1 | – | inconclusive: 12.6 µM [rising, partial curve]
COc1ccc(-c2nnc(SCc3nnc(-c4ccccc4)o3)n2C)cc1OC | – | inconclusive: 12.6 µM [rising, single point]
Cc1cc(=Nc2ccc3c(c2)c(N)cc(C)[n+]3C)nc(N)n1C | inactive: -2.36% [at 7.6 µM] | –
